# In PubChem BioAssay (Tox21):
# Several values for one entry are separate records, joined by “and”; a condition that tells them apart may be missing. Identical values can stand only once. Inconclusive results, whose numbers are uncertain, are shown with a selection of clear calls. A potency beside an inconclusive call is a rough fit, not a confirmed value. Activity calls are given as the source filed them. Calls come from the whole dose curve; as a rule, active = well fitted cell-killing curve with a large enough effect in the repeat runs; inconclusive = weak or mixed curves, or effect the other way; inactive = flat fitted curve, though single readings scatter.
# Legend:
# [1] = cAMP Responsive Elements (CRE) small molecule antagonists, cell-based qHTS assay: qHTS cell viability counter screen (AID 2060913); conditions: CRE-bla HEK293T viability, CellTiter-Glo luminescence, 5 h; series mostly up to 92.4 µM; note: nearly all actives have a fitted effect of over 40% in size
# How it was run: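 Viability of NKH477-stimulated (0.25 uM final) CRE-bla HEK293T cells is measured by CellTiter-Glo luminescence following 3 hrs compound exposure at 37 C.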
# [2] = cAMP Responsive Elements (CRE) small molecule agonists, cell-based qHTS assay: qHTS cell viability counter screen (AID 2060914); conditions: CRE-bla HEK293T viability, CellTiter-Glo luminescence, 5 h; series mostly up to 92.4 µM;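 note: viability read after 3 h of compound exposure; nearly all actives have a fitted effect of over 50% in size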
# How it was run: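 CRE-bla HEK293T cells in 10% dialyzed FBS medium were exposed to compounds for 3 h at 37C after 18 h plating. CellTiter-Glo was then added in the same wells, and luminescence was read after 30 min at room temperature.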
# Potency is the fitted concentration of half-maximal effect; tags give direction and shape of the fitted curve.
SMILES,Potency [1],Potency [2]
CCCCCCCCCCCCCCCC[N+](C)(C)C,"inconclusive: 13.2 µM [cytotoxic, partial curve] and active: 54.5 µM and inconclusive: 13.3 µM [cytotoxic, full curve]",active: 29.5 µM and active: 61.1 µM and active: 26.6 µM
C[C@@H]1CN(C2CCC(C#N)(c3ccc(F)cc3)CC2)CC[C@]1(C(=O)O)c1ccccc1 (some centres not stated),–,"inconclusive: 106 nM [cytotoxic, single point]"
O=[N+]([O-])c1cccc2c([N+](=O)[O-])cccc12,"inconclusive: 68.9 µM [cytotoxic, single point]",active: 61400 nM
CCC(=O)O[C@H]1CC[C@H]2[C@@H]3CCC4=CC(=O)CC[C@]4(C)[C@H]3CC[C@]12C,"inconclusive: 61.1 µM [cytotoxic, single point]","inconclusive: 13700 nM [cytotoxic, single point]"
COc1ccc([N+](=O)[O-])cc1O,–,"inconclusive: 298 nM [cytotoxic, single point]"
OCCOCCO,–,"inconclusive: 2430 nM [cytotoxic, single point]"
Nc1c(Cl)c(Cl)c(Cl)c(Cl)c1Cl,–,"inconclusive: 10900 nM [cytotoxic, single point]"
Clc1ccc(CCC(Cn2ccnc2)Sc2c(Cl)cccc2Cl)cc1 (configuration not stated),–,"inconclusive: 33500 nM [cytotoxic, single point]"
CCC[N+]1(C)CCCCC1,–,"inconclusive: 547 nM [cytotoxic, single point]"
NC(=O)c1ccc(N)nc1,–,"inconclusive: 172 nM [cytotoxic, single point]"
CCC1(c2cccc(O)c2)CCCCN(C)C1 (configuration not stated),–,inactive
O=C(NC(=O)c1ccccc1Cl)Nc1ccc(OC(F)(F)F)cc1,–,"inconclusive: 545 nM [cytotoxic, full curve, poor fit]"
O=C1c2ccccc2C(=O)C1C(=O)C(c1ccccc1)c1ccc(Cl)cc1 (configuration not stated),–,"inconclusive: 545 nM [cytotoxic, single point]"
C=CCOC(N)=O,–,inactive
